Hit rate of the full screen: of about 48,000 compounds, about 1,200 (2.5%) were called active. Not shown: some 2% with an inconclusive outcome.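 How the source made its calls: active means activation of at least 60% and not above a set upper limit (about 1 call in 100 departs from these limits); inconclusive means activation of 40% to 60%, or above that upper limit; inactive means activation under 40%.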 Some of the results follow.
Biological target: Probable G-protein coupled receptor 32 (Homo sapiens) (UniProt O75388)
Assay: qHTS for Agonists of Human Resolvin D1 Receptor DRV1; further: 0% is about no effect
Details: CHO-K1 GPR32 beta-arrestin PathHunter luminescence, 90 min; at 76.9 µM; stronger effect = higher value; zero percent set by DMSO-only wells
Method in brief: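 CHO-K1 cells stably expressing ProLink-tagged GPR32 and Enzyme Activator-tagged beta-arrestin were seeded at 2,500 cells/well overnight, exposed to compounds for 90 min at 37 °C, then read by beta-Gal complementation chemiluminescence after 1 h detection reagent.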

UniProt O75388, sequence (O75388 whole entry, looked up): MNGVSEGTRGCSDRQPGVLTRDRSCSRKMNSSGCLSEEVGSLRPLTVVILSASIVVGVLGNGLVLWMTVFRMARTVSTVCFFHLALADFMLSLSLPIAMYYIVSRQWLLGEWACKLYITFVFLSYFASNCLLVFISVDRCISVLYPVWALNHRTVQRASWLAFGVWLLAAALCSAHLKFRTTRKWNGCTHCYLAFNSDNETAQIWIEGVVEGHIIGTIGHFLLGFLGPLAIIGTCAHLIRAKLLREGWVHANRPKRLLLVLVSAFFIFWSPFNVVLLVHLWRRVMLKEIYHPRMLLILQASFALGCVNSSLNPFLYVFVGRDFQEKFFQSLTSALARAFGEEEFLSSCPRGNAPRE

activation, active:
O=C(Nc1ccc(F)cc1)c1ccc2c(c1)NC(=O)c1ccccc1S2 76%

activation, inactive:
Cc1ccc(C)c(NC(=O)N(C)CCc2c(C)nn(C)c2C)c1 -13.2%, O=C(CCc1ccccc1)N(Cc1cccnc1)c1nc2c(F)cc(F)cc2s1 -18.1%, CCOc1ccc(-c2nc(CNC(=O)NC3CCCCC3)c(C)o2)cc1 2.93%, CCN(CC)CCNc1ncnc2c1cnn2-c1cc(Cl)ccc1C -3.63%, CCNc1nc(N)nc(Oc2ccc(OCC(=O)OC)nn2)n1 -11.2%, CCOc1ccccc1C(=O)Nc1cccc2ccc(C)nc12 0.782%, CCCN(C(=O)C(=O)Nc1ccc2nc3n(c(=O)c2c1)CCCCC3)c1ccc(OCC)cc1 -7.77%, COc1cccc(CNC(=O)CSc2nc(=O)[nH]c3c2CCC3)c1 -5.47%, COc1ccc(CCNc2nc3ccc(Cl)cc3n3cnnc23)cc1OC -8.81%, Cc1cccc2nc(-c3ccc(N(C)C)cc3)c(Nc3ccc4c(c3)OCO4)n12 -22.2%, CCc1nnc(NS(=O)(=O)c2ccc(N)cc2)s1 -5.35%, Cc1ccc(NC(=O)/C=C/c2ccc(Cl)cc2)c(Br)c1 31.9%, COc1ccccc1-c1nnc(C2CCN(C(=O)c3cccc(Cl)c3)CC2)o1 -5.48%, CCOC(=O)c1ccccc1NC(=O)Cn1c(=O)n(CCC(=O)N2CCc3ccccc3C2)c(=O)c2ccccc21 -5.12%, Cc1cccc(C(c2sc3nc(-c4ccco4)nn3c2O)N2CCN(Cc3ccccc3)CC2)c1 (stereo unspecified) -20.9%, COc1cc(NC(=O)c2cc(Cl)ccc2Cl)ccc1NC(=O)c1cc2ccccc2o1 16.3%, COc1cc(C2CC(=O)c3c([nH]c(C(=O)OCc4ccc(C)cc4)c3C)C2)cc(OC)c1OC (stereo unspecified) 14.4%, Cc1ccccc1NC(=O)Cn1c(=O)n(CCCCCC(=O)NCc2ccccc2Cl)c(=O)c2sccc21 -21.6%, COCCCNC(=O)c1[nH]c2ccccc2c1Sc1ccc(C)cc1 -21.6%, CN(C)c1ccc(CNC(=O)c2cnc3sc(N4CCCC4)nn3c2=O)cc1 1.84%, CCS(=O)(=O)N1CCc2cc(C(=O)NCc3ccc(Cl)cc3)ccc21 17.7%, Cc1c(NC(=O)Cc2ccc(F)cc2)cccc1-c1nc2cccnc2s1 -11.9%, Cc1cccc(NC(=O)CSc2nc3ccc(NC(=O)COc4ccc(Cl)cc4)cc3s2)c1 12.5%, Cc1cccc(NC(=O)c2cc3c(=O)n(Cc4ccco4)ccc3nc2C)c1 -18.1%, O=C(Nc1nnc(SCc2cc(=O)c3ccccc3[nH]2)s1)c1ccccc1 32.8%, Cc1nn(-c2ccccc2)c2c1N(CC(=O)NCc1ccc(N(C)C)cc1)C(=O)CS2 3.99%, Fc1ccc(-c2nc(-c3cccs3)c(-c3cccs3)[nH]2)cc1 13.5%, Cc1ccc2cc3cc(C(=O)N4CCN(c5cccc(C(F)(F)F)c5)CC4)sc3nc2c1 4.12%, CN(c1ncnc2c1c(-c1ccccc1)cn2-c1ccc(F)cc1)C1CCCCC1 -54.9%, CCC(=O)N1CCc2cc(S(=O)(=O)CCC(=O)N3CCN(c4ccccc4Cl)CC3)ccc21 -2.62%, O=C(NCCOCCO)C(=O)Nc1c2c(nn1-c1ccc(F)cc1)CSC2 -12.6%, O=C(NCCn1cc(SCc2cccc(F)c2)c2ccccc21)c1cccc(C(F)(F)F)c1 23.5%, Cc1ccc(N(Cc2cccs2)C(=O)c2ccccc2)cc1 -43.8%, CCOC(=O)c1cc(-c2ccccc2)n(CCC(=O)Nc2ccc(C(F)(F)F)cc2)c1C -7.75%, Clc1ccccc1Cn1cccc1C1=NC(Cc2ccccc2)CO1 (stereo unspecified) -9.09%, COc1ccc(-c2nc3ccc(NS(C)(=O)=O)cc3o2)cc1 26.3%, O=C(O)c1ccc(Nc2nc(-c3ccccc3)c3cc(Br)ccc3n2)cc1 -9.83%, Cn1c(SCC(N)=O)nc2c([nH]c3ccccc32)c1=O -6.16%, Cc1cccc(NC(=O)CSc2nnc3scc(-c4ccccc4)n23)c1 -11.9%, O=C(O)c1ccccc1Nc1ccccc1 15.2%, COc1ccccc1NC(=O)c1oc2ccccc2c1NC(=O)C(C)C -5.38%, CN(C)CCN1CCN(c2cccc(Cl)c2)C1=O 5.05%, COc1cccc(-c2nnc(-c3cc4cc(Cl)ccc4oc3=O)o2)c1 4.86%, O=C1CCc2cc(S(=O)(=O)NCc3ccc(Cl)cc3)cc3c2N1CC3 5.24%, COc1cc(-c2noc(CSc3nc(-c4ccc(F)cc4)cc(=O)[nH]3)n2)cc(OC)c1OC -9.29%, O=c1c(N2CCN(c3cccc(C(F)(F)F)c3)CC2)csc2ccccc12 -10.4%, CC1CCN(S(=O)(=O)c2ccc3c(c2)c(=O)c(C(=O)NCc2ccc(Cl)cc2)cn3C)CC1 -11.2%, Cc1ccccc1CNC(=O)c1ccccc1NC(=O)c1nsc2ccccc12 -7.47%, O=C(Nc1ccc(Cl)c(C(F)(F)F)c1)C1CCCN(S(=O)(=O)c2cccc3cccnc23)C1 (stereo unspecified) -6.25%, CC(C)(C)c1ccc(CSc2nc3c(c(=O)[nH]2)CCCC3)cc1 44.8%, CCC1CCC(C(=O)NC(C(=O)NCCN(CC(C)C)CC(C)C)C(C)C)CC1 (stereo unspecified) 5.26%, COc1ccccc1NC(=O)Cn1cnc2c(nc3n2CCCCC3)c1=O -1.36%, CCOc1ccc(Nc2c(S(=O)(=O)c3ccc(Cl)cc3)cnc3ccc(OC)cc23)cc1 -42.7%, O=C(Nc1ccc(F)cc1)N1CCN(c2ccc3nnc(-c4ccc(F)cc4)n3n2)CC1 36.8%, Cc1ccc(-n2nnc(-c3nsc(NC(=O)c4ccccc4C)n3)c2C)cc1Cl -4.31%, COc1ccc(-c2c3c(=O)n(C)c(=O)n(C)c3cn2-c2cccc(N)c2)cc1 -17.6%, COc1ccc(-c2cn3c(n2)sc2cc(C(=O)NCc4cccs4)ccc23)cc1 -16.8%, CCOC(=O)CC(NC(=O)CCc1c(C)nc2c(-c3ccccc3)c(C)nn2c1C)c1ccc(C)cc1 (stereo unspecified) 6.77%, Cc1ccc(CNC(=O)C2CCN(C(=O)c3ccc(-n4ccc5ccccc54)s3)CC2)cc1 18.5%, COc1cccc(CN2C(=O)N(c3ccc(C)cc3)C(=O)C2CC(=O)Nc2cc(OC)cc(OC)c2)c1 (stereo unspecified) -13.1%, COc1ccc(Cn2ccc3nc(C)c(C(=O)Nc4ccc(F)cc4)cc3c2=O)cc1 5.45%, CCn1cc(C(=O)NCCc2ccc(Cl)cc2)c(=O)c2cc(S(=O)(=O)N3CCc4ccccc4C3)ccc21 21.5%, COCCCNC(=O)c1[nH]c2cc(OC)ccc2c1Sc1ccc(C)cc1 -3.51%, Nc1nonc1-c1nc2ccccc2n1CC(=O)Nc1cccc(Cl)c1Cl -1.57%, CCc1cccc(NC(=O)Cn2ccn3nc(-c4ccc(OC)c(OC)c4)cc3c2=O)c1 17.8%, CN(Cc1ccco1)S(=O)(=O)c1nnc(NC(=O)c2ccccc2)s1 18.1%, Cc1cccc(-c2noc(-c3ccc(NCc4cccnc4)c([N+](=O)[O-])c3)n2)c1 26%, COc1ccccc1N(CC(=O)Nc1cc(C)cc(C)c1)S(C)(=O)=O 5.04%, O=C(Nc1nnc(S(=O)(=O)N2CCCCCC2)s1)c1ccccc1 30.8%, CCc1ccc(NS(=O)(=O)c2c(-c3ccccc3)csc2C(=O)OC)cc1 -10.1%, Cc1cc(NCc2ccc(Cl)cc2)n2cnnc2n1 -1.54%, COC(=O)c1ccc(Oc2nc3c(c(=O)n(C)c(=O)n3C)n2Cc2ccc(Cl)c(Cl)c2)cc1 20%, CCC(=O)Nc1cccc(OCc2cc(=O)n3cc(C)ccc3n2)c1 -1.99%, CCOc1ccc(NC(=O)c2nnn(-c3ccc(F)c(Cl)c3)c2C)cc1 16.6%, Cc1ccccc1NC(=O)Cn1cc(S(=O)(=O)N2CCCC2)c(S(=O)(=O)N2CCCC2)c1 -11.4%, CC1=C(C(=O)Nc2ccccc2)C(c2ccccn2)n2nc(SCc3ccccc3Cl)nc2N1 (stereo unspecified) 4.02%, COc1ccc(NC(=O)c2oc3ccccc3c2NC(=O)C23CC4CC(CC(C4)C2)C3)cc1 2.02%, COc1ccc(OC)c(NC(=O)c2c(NCc3ccc(N(C)C)cc3)sc3c2CCCC3)c1 -15.6%, COc1cc(OC)cc(C(=O)Nc2ccc3c(c2)n(C)c(=O)c(=O)n3C)c1 -11%, Cc1ccc(OCc2cc(=O)n3c4c(sc3n2)CCCC4)cc1C 4.63%, COc1ccc(S(=O)(=O)N(CC(=O)Nc2ccc3c(c2)OCO3)c2ccc(C)cc2)cc1 5.25%, O=C(NCc1ccccc1Cl)c1ccc(NC(=O)N2CCSc3ccccc32)cc1 -20.2%, O=C(NCCCc1ccccc1)c1nn(-c2ccccc2)nc1CO -13.3%, Cn1cc(S(=O)(=O)N2CCCCC2)cc1C(=O)Nc1ccc(OC(F)(F)F)cc1 0.518%, O=C(Cn1cc(S(=O)(=O)c2ccccc2)c(=O)c2cc3c(cc21)OCO3)Nc1ccccc1 -3.44%
